Assay results: the supplement of paper PMC9151546
Repeats are few or missing, and single values can be far off.

How the values were obtained:
CHO-K1 [1] = assay: hypodiploid nuclei frequency (% of nucleated events); higher = more hypodiploid events (aneugenic)
Procedure: (§1)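 Flow-cytometric in vitro micronucleus assay (Litron MicroFlow) in CHO-K1 cells in 96-well plates, 19 concentrations (4.5-200 µM, n=1 per concentration). Without S9, cells were exposed for 24 h and sampled at 48 h. With Aroclor 1254-induced rat liver S9, cells were exposed for 3-4 h and sampled at 27-28 h. Read-outs are %MN and %hypodiploid nuclei relative to nucleated events, and relative survival as the nuclei-to-bead ratio versus the 1% DMSO vehicle control (x100).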

CHO-K1 [2] = assay: micronucleus frequency (% of nucleated events); higher = more micronuclei (genotoxic)
CHO-K1 [3] = assay: relative survival (nuclei to bead ratio vs DMSO control) (% of vehicle control); higher = more surviving cells
Procedure: as §1
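Wherever hypodiploid nuclei frequency (% of nucleated events) is given: hypodiploid nuclei gated on a flow cytometer with 488 nm excitation after SYTOX Green staining, cultures at 37 °C, positive controls vinblastine without S9 and cyclophosphamide with S9.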
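Wherever micronucleus frequency (% of nucleated events) is given: cells lysed with nuclei stained by SYTOX Green, then micronucleus-gated events counted against nucleated events by flow cytometry with 488 nm excitation.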
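Wherever relative survival (nuclei to bead ratio vs DMSO control) is given: Lysed-cell nuclei stained with SYTOX Green and counted against counting beads by flow cytometry at 488 nm excitation, with vinblastine (no S9) and cyclophosphamide (plus S9) as positive controls.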

COC(=O)Nc1nc2ccccc2[nH]1 [Carbendazim]
Details	hypodiploid nuclei frequency, CHO-K1 [1] [%]	micronucleus frequency, CHO-K1 [2] [%]	relative survival, CHO-K1 [3]
concentration: 4.5 (µM), S9 metabolic activation: with S9, exposure time: 3-4 hours	0.1	0.8	101
concentration: 4.5 (µM), S9 metabolic activation: without S9, exposure time: 24 hours	6.96	6.14	72.6
concentration: 5.63 (µM), S9 metabolic activation: with S9, exposure time: 3-4 hours	0.18	1.2	109
concentration: 5.63 (µM), S9 metabolic activation: without S9, exposure time: 24 hours	19	14.6	64
concentration: 7.04 (µM), S9 metabolic activation: with S9, exposure time: 3-4 hours	0.22	0.88	111
concentration: 7.04 (µM), S9 metabolic activation: without S9, exposure time: 24 hours	33.8	22.9	56
concentration: 8.8 (µM), S9 metabolic activation: with S9, exposure time: 3-4 hours	0.32	1	84.4
concentration: 8.8 (µM), S9 metabolic activation: without S9, exposure time: 24 hours	37.5	23.1	43.1
concentration: 11 (µM), S9 metabolic activation: with S9, exposure time: 3-4 hours	0.12	0.84	97.5
concentration: 11 (µM), S9 metabolic activation: without S9, exposure time: 24 hours	38.1	29.3	44.2
concentration: 13.7 (µM), S9 metabolic activation: with S9, exposure time: 3-4 hours	0.14	1.41	97.1
concentration: 13.7 (µM), S9 metabolic activation: without S9, exposure time: 24 hours	–	–	37.4
concentration: 17.2 (µM), S9 metabolic activation: with S9, exposure time: 3-4 hours	0.18	1.24	104
concentration: 17.2 (µM), S9 metabolic activation: without S9, exposure time: 24 hours	–	–	39.9
concentration: 21.5 (µM), S9 metabolic activation: with S9, exposure time: 3-4 hours	0.24	1.44	86.9
concentration: 21.5 (µM), S9 metabolic activation: without S9, exposure time: 24 hours	14.5	41.3	44.1
concentration: 26.8 (µM), S9 metabolic activation: with S9, exposure time: 3-4 hours	0.34	1.08	143
concentration: 26.8 (µM), S9 metabolic activation: without S9, exposure time: 24 hours	–	–	12.6
concentration: 33.6 (µM), S9 metabolic activation: with S9, exposure time: 3-4 hours	0.3	1.16	158
concentration: 41.9 (µM), S9 metabolic activation: with S9, exposure time: 3-4 hours	0.28	0.76	165
concentration: 41.9 (µM), S9 metabolic activation: without S9, exposure time: 24 hours	–	–	19.8
concentration: 52.4 (µM), S9 metabolic activation: with S9, exposure time: 3-4 hours	0.42	1.16	110
concentration: 52.4 (µM), S9 metabolic activation: without S9, exposure time: 24 hours	–	–	13.3
concentration: 65.5 (µM), S9 metabolic activation: with S9, exposure time: 3-4 hours	0.46	1.02	131
concentration: 65.5 (µM), S9 metabolic activation: without S9, exposure time: 24 hours	–	–	10.8
concentration: 81.9 (µM), S9 metabolic activation: with S9, exposure time: 3-4 hours	0.58	1.46	91.2
concentration: 81.9 (µM), S9 metabolic activation: without S9, exposure time: 24 hours	–	–	12.6
concentration: 102 (µM), S9 metabolic activation: with S9, exposure time: 3-4 hours	0.9	1.46	126
concentration: 102 (µM), S9 metabolic activation: without S9, exposure time: 24 hours	–	–	12.9
concentration: 128 (µM), S9 metabolic activation: with S9, exposure time: 3-4 hours	0.94	1.44	103
concentration: 128 (µM), S9 metabolic activation: without S9, exposure time: 24 hours	–	–	15
concentration: 160 (µM), S9 metabolic activation: with S9, exposure time: 3-4 hours	0.7	1.3	111
concentration: 160 (µM), S9 metabolic activation: without S9, exposure time: 24 hours	–	–	18.4
concentration: 200 (µM), S9 metabolic activation: with S9, exposure time: 3-4 hours	1.6	2.16	90.8
concentration: 200 (µM), S9 metabolic activation: without S9, exposure time: 24 hours	–	–	20.8
